{"source": "PubChem BioAssay AID686978", "about": "(National Center for Advancing Translational Sciences (NCATS), 2013)", "note": "Hit rate of the full screen: of about 420,000 compounds, about 64,000 (15%) were called active. Inconclusive means that the source gave no clear call. Such entries were picked first, then a sample of the others. Calls follow the shape of the dose curve; as a rule, active = well fitted inhibition curve with a large enough effect; inconclusive = small, poorly fitted or top-dose-only effect; inactive = flat fitted curve, though single readings scatter. No potency is given beside an inconclusive call; the fits are too rough. % is scaled to controls: 0 for no effect and ±100 for the full control effect; potency is read from the fitted curve at half-maximal effect; tags tell the direction and shape of the fitted curve."}
{"experiment": "qHTS for Inhibitors of human tyrosyl-DNA phosphodiesterase 1 (TDP1): qHTS in cells in absence of CPT; also: nearly all actives have a fitted effect of over 55% in size", "conditions": "DT40 Tdp1-/- hTDP1 cells, no CPT, ATP luminescence, 48 h; activity change, negative = growth inhibition: at 46.2 µM (top of the series) unless noted", "outline": "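Seeded 400 DT40-hTDP1 cells/well (vehicle DMSO, no 20 nM CPT); pinned compounds; ≥48 hr at 37 °C; CellTiter-Glo luminescence as viability measure.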"}
{"smiles": "Cc1ccc(OCC(=O)Nc2ccc3nc(SCCOc4ccccc4)sc3c2)cc1", "Potency": "active: 10.3 µM"}
{"smiles": "O=C(OCc1ccccc1)N(CCF)c1cn(Cc2ccccc2)c(=O)n(Cc2ccccc2)c1=O", "Potency": "inconclusive [inhibitor, single point]"}
{"smiles": "COc1ccc(C(=O)NCCCSC)cc1OC1CCN(C(C)C)CC1", "Potency": "inactive"}
{"smiles": "COc1ccc(CNC(=O)c2ccc3nc(C(C)C)oc3c2)cc1OC", "Potency": "inconclusive [inhibitor, single point]"}
{"smiles": "C=CC(=O)N1c2ccccc2Sc2ccc(NC(=O)OCC)cc21", "Potency": "active: 29.1 µM"}
{"smiles": "Cc1ccc(NC(=O)CN2C(=O)COc3ccc(S(=O)(=O)Nc4ccccc4)cc32)c(C)c1", "Potency": "inconclusive [inhibitor, single point]"}
{"smiles": "O=[N+]([O-])c1ccc(C(=S)N2CCN(c3ccc(F)cc3)CC2)cc1", "Potency": "inconclusive [inhibitor, single point]"}
{"smiles": "COc1ccc(S(=O)(=O)NCc2ccco2)cc1-c1nnc2c3ccccc3c(C)nn12", "Potency": "inconclusive [inhibitor, single point]"}
{"smiles": "Cc1cc(C(=O)NNC(=S)NCc2ccco2)nn1C", "Potency": "inactive"}
{"smiles": "CN(C1=NS(=O)(=O)c2ccccc21)c1ccc(OC(=O)c2ccccc2F)cc1", "Potency": "inconclusive [inhibitor, partial curve]"}
{"smiles": "COC(=O)c1nc(NC(=O)c2ccccc2)n[nH]1", "Potency": "inactive"}
{"smiles": "CCCS(=O)(=O)NC(=O)C1(C)CCCN(C(=O)COc2ccccc2)C1", "note": "(configuration not stated)", "Potency": "inactive"}
{"smiles": "O=C(/C=C/c1cn(-c2ccccc2)nc1-c1ccc2c(c1)OCCO2)NCCCN1CCOCC1", "Potency": "inconclusive [inhibitor, single point]"}
{"smiles": "Cc1cc(C)c(NC(=O)CSc2nc3ccncc3[nH]2)c(C)c1", "Potency": "inconclusive [inhibitor, single point]"}
{"smiles": "CC(C)(C)c1ccc(S(=O)(=O)N2CCSC2)cc1", "Potency": "inconclusive [inhibitor, single point]"}
{"smiles": "O=C(Nc1cccc(S(=O)(=O)NC2=NCCC2)c1)c1cc(-c2ccccn2)nc2ccccc12", "Potency": "active: 16.4 µM"}
{"smiles": "Cc1ccccc1-n1c(Cn2c(=O)sc3ccccc32)nnc1SCC(=O)Nc1nccs1", "Potency": "inactive"}
{"smiles": "CC(C)NC(=O)C1CCN(c2ccc(S(=O)(=O)N3CCOCC3)cc2Cl)CC1", "Potency": "inactive"}
{"smiles": "COc1cnc(-c2cccc(C(F)(F)F)c2)c(NC(=O)c2cc3ccccc3s2)n1", "Potency": "active: 10.3 µM"}
{"smiles": "COc1ccc([C@@H]2[C@@H]3C(=O)N(C(C)(C)C)C(=O)[C@@H]3[C@]3(Cc4ccccc4)C(=O)N(c4ccc(C(F)(F)F)cc4)C(=O)N23)cc1", "Potency": "inconclusive [inhibitor, partial curve]"}
{"smiles": "Cc1ncc2c(c1CNC(=O)/C=C/c1cccs1)CCN(C(=O)c1ccc3c(c1)OCCO3)C2", "Potency": "inactive"}
{"smiles": "COc1ccc(C=CC(=O)C=CC=Cc2ccccc2)cc1", "Potency": "inconclusive [inhibitor, single point]"}
{"smiles": "O=C(Nc1nc2c(s1)CN(Cc1ccccc1)CC2)c1c(F)cccc1F", "Potency": "inconclusive [inhibitor, single point]"}
{"smiles": "CCN1C(=O)[C@H]2[C@@H](c3ccc(-c4ccc(F)cc4)cc3)N[C@@](CC(C)C)(C(=O)OC)[C@H]2C1=O", "Potency": "active: 18.4 µM"}
{"smiles": "CN(C)c1nc(N)c(C#N)c(C#N)c1C#N", "Potency": "inconclusive [inhibitor, single point]"}
{"smiles": "CC1C/C(=N\\NC(=O)c2ccc(NS(=O)(=O)c3ccc(Br)cc3)cc2)CC(C)(C)C1", "note": "(configuration not stated)", "Potency": "inactive"}
{"smiles": "OC[C@@H]1CN(Cc2cccs2)C[C@H](n2cnc3c(NCc4ccc(F)cc4)ncnc32)O1", "Potency": "inactive"}
{"smiles": "COc1ccccc1NC(=O)CSc1nccn1Cc1ccccc1", "Potency": "inactive"}
{"smiles": "CCOC(=O)/C(C#N)=C/Nc1cc(OC)ccc1OC", "Potency": "inconclusive [inhibitor, single point]"}
{"smiles": "Cc1cc(C)c2c(=O)cc(C(=O)NCc3ccc(S(N)(=O)=O)cc3)oc2c1", "Potency": "inconclusive [inhibitor, single point]"}
{"smiles": "Clc1ccc(-c2nc3c4ccccc4ccn3c2CC2CCCCC2)cc1", "Potency": "inactive"}
{"smiles": "COCCCNC(=O)C1CCN(C(=O)c2oc3cc4sc(N(C)C)nc4cc3c2C)CC1", "Potency": "inactive"}
{"smiles": "CCc1ccc(NC(=O)CCc2nnc3n(C)c(=O)c4sccc4n23)cc1", "Potency": "inconclusive [inhibitor, single point]"}
{"smiles": "Cc1cccc(NC(=O)c2ccc(N3CCOCC3)c([N+](=O)[O-])c2)n1", "Potency": "inconclusive [inhibitor, single point]"}
{"smiles": "O=[N+]([O-])c1cc([N+](=O)[O-])c(Oc2cccc(Cl)c2Cl)cc1NN1CCCCC1", "Potency": "inconclusive [inhibitor, single point]"}
{"smiles": "CC(O/N=C/c1ccc(OC(F)F)cc1)C(=O)Nc1cccc(S(=O)(=O)N2CCOCC2)c1", "note": "(configuration not stated)", "Potency": "inconclusive [inhibitor, single point]"}
{"smiles": "COC(=O)c1cc2oc3ccccc3c2n1Cc1c(C)cc(C)cc1C", "Potency": "inactive"}
{"smiles": "COC(=O)c1c(NC(=S)NN2CCN(C)CC2)sc2c1CCC(C)C2", "note": "(configuration not stated)", "Potency": "inconclusive [inhibitor, single point]"}
{"smiles": "O=C(NCCc1ccccc1)c1ccc2c(c1)N(Cc1ccccc1)C(=O)CS2=O", "note": "(configuration not stated)", "Potency": "inconclusive [inhibitor, single point]"}
{"smiles": "CC(=O)Nc1ccc(NC(=O)C(C)OC(=O)c2ccc(C)s2)cc1", "note": "(configuration not stated)", "Potency": "inactive"}
{"smiles": "CC(C)(CNC(=O)CCNC(=O)c1ccc(Br)cc1)N1CCOCC1", "Potency": "inactive"}
{"smiles": "COc1ccc(C(=O)N2CC3(CC(c4cccc(NC(=O)COc5ccc(Cl)cc5)c4)=NO3)C[C@@H]2C(N)=O)cc1", "note": "(some centres not stated)", "Potency": "inconclusive [inhibitor, single point]"}
{"smiles": "CS(=O)(=O)Nc1cccc(C2=NN(C(=O)CCC(=O)O)C(c3cccs3)C2)c1", "note": "(configuration not stated)", "Potency": "inactive"}
{"smiles": "CC(C)CNC(=O)C1(C)CCCCCN1C(=O)c1cc(C#N)cs1", "note": "(configuration not stated)", "Potency": "inactive"}
{"smiles": "Cc1ccc(C)c(OC(=O)c2cncc(Br)c2)c1", "Potency": "inactive"}
{"smiles": "O=C(O)CCn1cc(C(=O)O)c(-c2ccccc2)n1", "Potency": "inactive"}
{"smiles": "C=CCNC(=O)c1c[nH]c2ccc(S(=O)(=O)N(C)c3ccc(OCC)cc3)cc2c1=O", "Potency": "active: 20.6 µM"}
{"smiles": "COC(=O)c1ccccc1NC(=O)Nc1c(C)n(C)n(-c2ccccc2)c1=O", "Potency": "inactive"}
{"smiles": "COc1cc2sc(-c3ccc(S(C)(=O)=O)cc3)c(-c3ccc4c(c3)OCO4)c2cc1OC", "Potency": "inconclusive [inhibitor, single point]"}
{"smiles": "Cc1nc2cccnc2n1-c1cccc(C(=O)NCCc2ccc(S(N)(=O)=O)cc2)c1", "Potency": "inactive"}
{"smiles": "Cc1ccc(NC(=O)c2ncn(CCCNCC(C)c3ccccc3)n2)cc1C", "note": "(configuration not stated)", "Potency": "inconclusive [inhibitor, partial curve, poor fit]"}
{"smiles": "Cn1c(SCC(=O)NCc2ccccc2)nnc1-c1ccc(NC(=O)CCc2ccccc2)cc1", "activity change, negative = growth inhibition": "inconclusive: -35.5% [inhibitor]"}
{"smiles": "O=c1c([N+](=O)[O-])cc(C(F)(F)F)cn1Cc1c(Cl)cccc1Cl", "Potency": "inconclusive [inhibitor, partial curve]"}
{"smiles": "CC1(C)CC(=O)C(C=Nc2ccc(C(=O)c3ccccc3)cc2N=CC2=C(O)CC(C)(C)CC2=O)=C(O)C1", "Potency": "inconclusive [inhibitor, single point]"}
{"smiles": "COc1ccc(CNC(=O)COc2cc3c(c4oc(=O)cc(C)c24)CCC(C)(C)O3)cc1", "Potency": "inconclusive [inhibitor, single point]"}
{"smiles": "COc1ccccc1N1C(=O)CC1(C#N)c1ccc(OCc2ccccc2)cc1", "note": "(configuration not stated)", "Potency": "inconclusive [inhibitor, single point]"}
{"smiles": "CCN(C[C@H]1N[C@@](CC)(C(=O)OC)[C@H]2C(=O)N(C)C(=O)[C@@H]12)S(=O)(=O)c1ccc(OC(F)(F)F)cc1", "Potency": "inconclusive [inhibitor, single point]"}
{"smiles": "Oc1ccc(-c2nnc(Nc3cccc(O)c3)c3ccccc23)cc1", "Potency": "inactive"}
{"smiles": "CCOc1ccc(N(CC(=O)Nc2ccccc2OC)S(C)(=O)=O)cc1", "Potency": "inconclusive [inhibitor, single point]"}
{"smiles": "CCOC(=O)N1CCC(NC(=O)COc2cc(=O)n(C)c3ccccc23)CC1", "Potency": "inactive"}
{"smiles": "Cc1cc([N+](=O)[O-])ccc1NC(=O)Cc1ccc(F)cc1", "Potency": "inactive"}
{"smiles": "CC1CCN(C(=O)C2(NC(=O)Nc3cccc(F)c3)CCCCC2)CC1", "Potency": "inconclusive [inhibitor, single point]"}
{"smiles": "CCN(CC)S(=O)(=O)c1cccc(NC(=O)CNC2CCCCCC2)c1", "Potency": "inconclusive [inhibitor, single point]"}
{"smiles": "Cc1cnc(CNc2ncncc2-c2ccccc2C(F)(F)F)cn1", "Potency": "inactive"}
{"smiles": "Cc1cc(NC(=O)C(C)SCC(=O)Nc2ccccc2N2CCCC2)no1", "note": "(configuration not stated)", "Potency": "inconclusive [inhibitor, single point]"}
{"smiles": "Cc1ccccc1-n1c(SCc2c(C)noc2C)nnc1-c1ccncc1", "Potency": "inactive"}
{"smiles": "Oc1ccccc1-c1nc2ccccc2nc1-c1ccccc1", "Potency": "inconclusive [inhibitor, partial curve]"}
{"smiles": "COc1ccc(OC)c(N2Cc3cc(C)c(C)cc3C2)c1", "Potency": "active: 25.9 µM"}
{"smiles": "CN1CCC(=NNC(=O)CN(c2cccc(Cl)c2)S(C)(=O)=O)CC1", "Potency": "inactive"}
{"smiles": "COc1ccc(CCNC(=O)CC2SC(=NCCc3ccccc3)NC2=O)cc1", "note": "(configuration not stated)", "Potency": "inconclusive [inhibitor, partial curve]"}
{"smiles": "COCCCN(CC(=O)O)S(=O)(=O)c1cccc(Cl)c1", "Potency": "inactive"}
{"smiles": "O=C(Nc1ccc(Cl)cc1C(F)(F)F)c1cc(S(=O)(=O)N2CCOCC2)ccc1F", "Potency": "inconclusive [inhibitor, partial curve]"}
